Measurements: the RNAGym collection of RNA variant scans (doi:10.1093/nar/gkz1192)
The source gives no read counts; variants with many changes may rest on few reads.

B1: CPEB3 Ribozyme (parent)
chain: UAACAGGGGGCCACAGCAGAAGCGUUCACGUCGCAGCCCCUGUCAGAUUCUGGUGAAUCUGCGAAUUCUGCUGUAUAUCUC

Variants of: B1
Assay: self-cleavage, relative activity (ratio to wild type); higher = more cleavage; in vitro, sequencing
Procedure, shortened: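 For each CPEB3 ribozyme variant, relative activity is its cleaved/total read fraction divided by the unmutated ribozyme's. Barcoded error-prone PCR libraries were transcribed by T7 RNA polymerase (5 hours, 37°C) and held in DNase I for 15 min before an EDTA stop, with cleavage occurring throughout. Template-switching reverse transcription and Illumina sequencing were used to read the RNAs. A 5-read minimum applied, and results are the mean of three batches.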

Variant	self-cleavage
UAACAGGGGGCCACAGCAGAGGCGUUCACGUCGCAGCUCCUGUCAGACUCUGGUGAAUCUGUGAAUUCUGCUGUAUAUCUC [A21G C38U U48C C62U]	0.14
UAACAGGGGGCCACAGCAGAGGCGUUCACGUCGCAGCUCCUGUCAGAUUCUGGUGAAUCUGCGAACUCUGCUGUAUAUCUC [A21G C38U U66C]	0.97
UAACAGGGGGCCACAGCAGAGGCGUUCACGUCGCAGCUCCUGUCAGAUUCUGGUGAAUCUGCGAAUUCUGCUGUACAUCUC [A21G C38U U76C]	0.6
UAACAGGGGGCCACAGCAGAGGCGUUCACGUCGCAGCCGCUGUCAGAUCCCGGUGAAUCGGCGAAUUCUGCUGUAUAUCUC [A21G C39G U49C U51C U60G]	0.08
UAACAGGGGGCCACAGCAGAGGCGUUCACGUCGCAGCCCACGUCAGAUUCUGGUGAAUCUGCGAAUUCUGCUGUAUAUCUC [A21G C40A U41C]	0.27
UAACAGGGGGCCACAGCAGAGGCGUUCACGUCGCAGCCCGUGUCAGUUUCUGGUGAAUCUGCGAAUUCUGCUGUAUAUCUC [A21G C40G A47U]	0.26
UAACAGGGGGCCACAGCAGAGGCGUUCACGUCGCAGCCCCUGUAAGAUUCUGGGGAAUCUGCGAAUUCUGCUGUAUAUCUC [A21G C44A U54G]	0.25
UAACAGGGGGCCACAGCAGAGGCGUUCACGUCGCAGCCCCUGUGAGACUCUGGUGAAUCUGCAAAUUCUGCUGUAUAUCUC [A21G C44G U48C G63A]	0.18
UAACAGGGGGCCACAGCAGAGGCGUUCACGUCGCAGCCCCUGUGAGAUUCUGGUGAAUCCGCGAACUCUGCUGUAUAUCUC [A21G C44G U60C U66C]	0.06
UAACAGGGGGCCACAGCAGAGGCGUUCACGUCGCAGCCCCUGUCAGAUUGUGGUGAAUCUGCGAAUUCUGCUGUAUUACUC [A21G C50G A77U U78A]	0.09
UAACAGGGGGCCACAGCAGAGGCGUUCACGUCGCAGCCCCUGUCAGAUUCUGGUGAAUCUGGGGAUUCUGCUGUAAAUCCC [A21G C62G A64G U76A U80C]	0.03
UAACAGGGGGCCACAGCAGAGACGUUCACGUCGCAGCCCCUGUCAGGUUCUGGUGAACCUGCGAAUUCUGCUGUAUAUCCC [A21G G22A A47G U58C U80C]	0.12
UAACAGGGGGCCACAGCAGAGACGUUCACGCCGCAGCCCCCGACAGAUUCUGGAGAAUCUGCGAAUUCCGCUGUAUAUCUC [A21G G22A U31C U41C U43A U54A U69C]	0.07
UAACAGGGGGCCACAGCAGAGCCGUUCACGUCGCAGCCCCUGUCUGAUUCUGGUGAAUCUGCGAAUUCUGCUGGAUAUCUC [A21G G22C A45U U74G]	0.24
UAACAGGGGGCCACAGCAGAGGCAUUCGCGUCGCAGCCCCUGUCGGAUUCUGGUGGAUCUGCGAAUUCUGCUGUAUAUCUC [A21G G24A A28G A45G A56G]	0.14
UAACAGGGGGCCACAGCAGAGGCCUUUACGUCGCUGCCCCUGUCAGAUUCUGGCGAAUCUGCGAAUUCUGCUGUAUAUCUC [A21G G24C C27U A35U U54C]	0.06
UAACAGGGGGCCACAGCAGAGGCCUUCACGUUGCAGCCCCUGUCGGAUUCUGGUGGAUCUGCGAACUCAGCUGUAUAUCUC [A21G G24C C32U A45G A56G U66C U69A]	0.04

Variant	self-cleavage
UAACAGGGGGCCACAGCAGAGGCUUUCUCGUCGCAGCCCCUGACAGAUUCUGGUGAAUCCGCGAAUUCUGCUGUAUAUCUC [A21G G24U A28U U43A U60C]	0.11
UAACAGGGGGCCACAGCAGAGGCUUUCACGCCGCAGCCCCUGUCAGAUUCUGGCGAAUCUGCGAAUUCUGCUGUAUAUCUC [A21G G24U U31C U54C]	0.06
UAACAGGGGGCCACAGCAGAGGCGUUCACCUCGCAGCCCCUGUCAGAUUCUGGUGAAUCUGCGAGUUCUGCUGUAUAUCUC [A21G G30C A65G]	0.14
UAACAGGGGGCCACAGCAGAGGCGUUCACUUCGCAGCCCCUGUCUGAUUCUGGUGGAUCUGCGAAUUCUGCUGUAUAUCUC [A21G G30U A45U A56G]	0.09
UAACAGGGGGCCACAGCAGAGGCGUUCACUUCGCAGCCCCCGUCAGAUUCUGGUGAAUCUGAGAAUUCUGCUGUAUAUCAC [A21G G30U U41C C62A U80A]	0.05
UAACAGGGGGCCACAGCAGAGGCGUUCACUUCGCAGCCCCCGUCAGAUUCUGGUGAAUCUGCGAAUUCUGCCGUAUAACUC [A21G G30U U41C U72C U78A]	0.05
UAACAGGGGGCCACAGCAGAGGCGUUCACUUCGCAGCCCCUGUCAGAUUCCGGUGAAUCUGCGAAUUCUGCUGUAAUUCUC [A21G G30U U51C U76A A77U]	0.1
UAACAGGGGGCCACAGCAGAGGCGUUCACGUCGCAGCCCCUAUCGGAUUCUGGUGAAUCUGCGAAAUCUGCUGUAUAUCUC [A21G G42A A45G U66A]	0.34
UAACAGGGGGCCACAGCAGAGGCGUUCACGUCGCAGCCCCUAACAGAUUCUGGUGUAUCUGCGAAUUCUGCUGUAUAUCUC [A21G G42A U43A A56U]	0.37
UAACAGGGGGCCACAGCAGAGGCGUUCACGUCGCAGCCCCUAUCAGAUUCUGGUGAAUCCGCGAAUUCUGCUGUAUAUCUC [A21G G42A U60C]	0.19
UAACAGGGGGCCACAGCAGAGGCGUUCACGUCGCAGCCCCUUUCAGAUUCUGGUGAAUCAGCGAAUUCUGCUGUAUAUCUC [A21G G42U U60A]	0.25
UAACAGGGGGCCACAGCAGAGGCGUUCACGUCGCAGCCCCUGUCAGAUUCUAGUGAAUCUGCGAAUUUUGCUGUAUAUCUC [A21G G52A C68U]	0.34
UAACAGGGGGCCACAGCAGAGGCGUUCACGUCGCAGCCCCUGUCAGAUUCUUGUGAAUCUGUGAAUUCUGCUGUAUAUCCC [A21G G52U C62U U80C]	0.19
UAACAGGGGGCCACAGCAGAGGCGUUCACGUCGCAGCCCCUGUCAGAUUCUGAUCAAUCUGCGAAUUCUGCUGUGUAUCUC [A21G G53A G55C A75G]	0.47
UAACAGGGGGCCACAGCAGAGGCGUUCACGUCGCAGCCCCUGUCAGAUUCUGGUGAAUCUACGAAUUCUGCUGCAUUUCUC [A21G G61A U74C A77U]	0.93
UAACAGGGGGCCACAGCAGAGGCGUUCACGUCGCAGCCCCUGUCAGAUUCUGGUGAAUCUGCAAAUUCGGCUGUAUAUCUC [A21G G63A U69G]	0.18
UAACAGGGGGCCACAGCAGAGGCGAUCACGUCGCAGCCCCUGUCCGAUUCUGGUGAAUCUGCGAAUUCUGCUGCAUAUCUC [A21G U25A A45C U74C]	0.27
